# Results as given in the supplement of paper PMC11417369.
# Some of the results follow.
# System: PF3D7_0420300 AP2 domain 1 (GST-tagged)
# Experiment: gcPBM binding intensity (ln(normalized median fluorescence intensity)); higher = stronger DNA binding
# In short: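 After 1 h on an Agilent 4 × 180k array of primer-extended double-stranded 36-bp intergenic genomic probes and negative controls, bound GST-tagged P. falciparum DNA-binding domains were detected with Alexa488 anti-GST antibody and scanned at 488 nm. The domains had been expressed in E. coli, and binding took place in 1× PBS with 1% milk, 0.2 mg/ml BSA, 0.5% salmon testes DNA and 0.03% Triton X-100. Binding intensity is the highest Masliner-normalised natural-log median intensity across replicate spots of either probe orientation.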
row,Sequence,gcPBM binding intensity (ln)
1,TATTAATCATATAAATGTACGTATATATATTTTTCT [XGTACX_site1421],9.24
2,ATATATATATATATAACACACGTGTATATATATGTA [CACACA_site3644],9.28
3,CAATCATAGAAAAACAGTACGTGTAGCAAACATCCT [XGTACX_site4889],9.59
4,TATAATATATTATAACGTACAAATATATATATAAAA [XGTACX_site6581],9.31
5,AAAAAAAAAAAATATATATATATATATATATATATA [CACACA_negctrl_site1606],9.3
6,AAAAAGAATAAATAAATAAATAAATATATATATATA [GTGCAC_negctrl_site584],9.04
7,TTTATTACTATGTAAACACACATGCAATATATGTTA [CACACA_site1114],9.25
8,AAAAAGAAAAAAAAATGTACATAAAGTCTAATGATA [XGTACX_site4781],9.37
9,ATATTATATAAATACACACACACATGCATGCACATA [CACACA_site4236],10.1
10,CCTATTTATTTATACACACACATATATAAATAAATA [CACACA_site7417],9.68
11,AAAACAAATAAGTAAACACACATATAAAATCTATAT [CACACA_site7262],9.71
12,TTATGTAAATGCTTATGTACTTATTACAATATTTTT [XGTACX_site4057],9.34
13,TAAGAATTGAAAAAATGTACACAATATAAAATTGAA [XGTACX_site698],9.14
14,TGAATAAAGATATATACACACATATAGGTATATATC [CACACA_site6870],9.51
15,AAAAAAAAAAGACACACACACACAAATACATACACA [CACACA_site6472],10.1
16,ATCTAAATAAAGTTAACACACACATAATATATATAT [CACACA_site8055],9.81
17,TGCTTATATTTTTATACACACAAGATACTTTTTGTT [CACACA_site1535],9.59
18,TTTTTTTCTTTTGGGAGTACCAACATTTTCACATAT [XGTACX_site1371],9.37
19,CTATGCCCCATATAAACACACAAATAAAAAGAATAT [CACACA_site2681],9.54
20,TATATGTTTGAATATACACACAACATATTTATATAT [CACACA_site7832],9.45
21,AAAAAAAAAAAATATGTACACACATATATAATACAT [CACACA_site8473],9.59
22,TTTTTTGTTAAAAGAGTGCAAATTTTTAAAGATTTG [GTGCAC_site9502],8.75
23,AAAAAAAAAAAAAAATACAAGCACATTTATATAAGC [GTGCAC_negctrl_site695],9.46

row,Sequence,gcPBM binding intensity (ln)
1,AGTAATATAATATAAGCACACGTGTATTTATTTAGG [CACACA_site7921],9.47
2,TATATATCAATATTTACACACATGCGCCCACATAAA [CACACA_site7185],9.66
3,AAATACATTAAAATGACATGCAGATATATATCAAAA [TGCATGCA_site477],9.45
4,TTAAAAAAATATAGAGCATGCTAAAAATAAAAAAAT [TGCATGCA_site794],9.33
5,AATAAAAATAATATAGTGCATAATATAAGGAAAAAA,9.6
6,CAACACTTAGATTTTAAGTTCACTGGTTAATATATA [CACACA_negctrl_site707],9.13
7,AGGTCTATATAATAAGTGCATTTTTTTTTTTTTTTT [GTGCAC_site9664],9.3
8,GTTATACTCATCAACACACACATACAACGTGGTGTA [CACACA_site4789],9.51
9,ATCAACAAAACATACACACACATATATATATATATA [CACACA_site2989],9.74
10,GCATCTCATTTGTGATGTACTATATTATCCGTTTTT [XGTACX_site7576],9.41
11,TTTCTATATCTATTTAATTAACTTTTTATACTGATT [GTGCAC_negctrl_site415],9.23
12,CACATAAAAAAATAAACACACATATGTATTTATATA [CACACA_site5718],9.41
13,CATATCATTGATTATAGTACACATACCATTTTTTAT [XGTACX_site6572],9.45
14,TGCAATGGAGCATAAAGTACATATAATTGTATTTTT [XGTACX_site7349],9.04
15,AATACAGAGGAAAATACACACGTATATATATAAATA [CACACA_site9125],9.69
16,TAGAATAATCCTTACACACACACACCCACGAATAAA [CACACA_site483],10.2
17,TTTTAAAAAAAAAAAAAAAAAAAAAAAAAAAAAAAA [CACACA_negctrl_site1343],8.39
18,TTTTAAAATTATTAGGTGCATATTTATTCTATATTT,9.22
19,TGTTTTTTTATTTTCACACATAATCCAATTATACAT [CACACA_site6070],9.45
20,AGAAATAAGAAATATACACACATATAAATATAAATA [CACACA_site7342],9.75
21,AAAAAAAATGATAATATACACACTTATGGGAGAGCG [CACACA_site2516],9.72
22,TAAAAAAAAACATATACACACAAAAACGTACACATA [CACACA_site1354],10.1
23,TTTTTTTCTCACAATCGTACATAAATACATATATAT [XGTACX_site3150],9.24

row,Sequence,gcPBM binding intensity (ln)
1,AGAATATGTTAAAAAAGTACATACTCTTTATATACG [XGTACX_site79],9.16
2,AGGGGAAATAAAATATAAATTATCATATATATATAT [XGTACX_negctrl_site366],9.17
3,TATATTTTTTAAACCACACACAATATAGAGTAGAAT [CACACA_site613],9.69
4,TAATGTACATAAACCGCACACATATAAAAAAATAAA [CACACA_site2851],9.47
5,CGTATATGACAAAAGCGTACGCATCAGCAGAAAAAT [XGTACX_site6248],9.26
6,ATATATATATATATATGTACTGAATAAAGAACAAAA [XGTACX_site5400],9.25
7,TTATTTTTGTTCATAGTGCATAGAATTTATACATAT,9.3
8,TTTTTTTTATGGTACACACACGCGTATGGTTGCACG [CACACA_site1877],9.65
9,ATAGACAGCGCACAAACACACAAACACAGACCCCCA [CACACA_site4409],9.95
10,ATTTATTTATTGGCACGTACAAATTTGTGTTTTCCA [XGTACX_site6978],9.31
11,TTTTTTTCTTTTCAAACACACAATTGGTATATATCA [CACACA_site7542],9.32
12,TTGTAAATTTCTGGTTATATATTTTATGTATATGTT [CACACA_negctrl_site1443],9.59
13,AAAGAAATGAAATATACACACATACATAAATACATA [CACACA_site6081],9.92
14,ATAAAGGAAATTACAAGTACAAATAAGATAAAATAA [XGTACX_site4514],9.51
15,AATTATATATTATAATGTACATATATATAACTATAC [XGTACX_site1865],9.27
16,ATATATTTAAACTACACACGCATATCTTAGAAATAA [CACACA_site1272],9.5
17,TATAAAAAAAGAGGAGGGATGGTATACTTGTGGTTT [TGCATGCA_negctrl_site49],9.5
18,TGTATATATAAACATGCACACGTGGTTGTATATATA [CACACA_site9078],9.4
19,AGAATTCGTTTAAAAAGTACATTCAATTTAATAATG [XGTACX_site6603],8.93
20,TGTAGTCTGGAGAAGAGTACACAGTATCTGGTAACA [XGTACX_site2038],8.91
21,TAGTATTAAAATATTTGTACTTATATGTATTATATA [XGTACX_site538],9.18
22,AATATTTTAAAAAAAAGTACATTATATATATATGTT [XGTACX_site8073],9.18
23,TCTTTGTAAATTTCTTGTACGTAAATTTTTTTTAGG [XGTACX_site7062],9.11

row,Sequence,gcPBM binding intensity (ln)
1,TCATAGTATAGACACACACACACACGCATATAAATA [CACACA_site6915],10.2
2,TATTTTACATCTTCTCACATTTTATCACTTTTTAAA [CACACA_negctrl_site330],9.23
3,TACTTACCAAAATACACACACACACTAGATATATAA [CACACA_site5096],10.3
4,TATATATCATATGATACATGCAACAAAATGCATAAT [TGCATGCA_site205],9.25
5,ATGTATATTACTCATTGTACTTATATTTTCTTATTA [XGTACX_site8897],9.59
6,ATTTTATATCTGGATAGTACTTTAATATTTCAAATG [XGTACX_site7304],9.21
7,GTATTTATAAATTATAGTACTTTGCGTATCATATAT [XGTACX_site7358],9.32
8,GGATATTCATTAACCACACACACAAAAAAAATAAAA [CACACA_site3800],9.92
9,ATGGATTATACGTGCACACATATATACAAATAAATA [CACACA_site640],9.52
10,ACCATTTGTAGGTAAACACACATTATTATTAATATC [CACACA_site2635],9.45
11,TAAAATGCAATCTGAACACACATATTTTTTTAATAT [CACACA_site6922],9.22
12,TACATCATACGAACAGTGCATATTATTATTGTTCTG,9.31
13,ATAAGGAAGGGATGCACACAAAAGGGTACATAAGAA [CACACA_site4006],9.82
14,TTTGAATCCTTATATACACACATTATAAAATATTAT [CACACA_site6406],9.38
15,TATTTGTAAATCGATACACACATATAGATTAATATA [CACACA_site6237],9.36
16,TTATATTATACATACACACCCATATAATATGTTTTT [CACACA_site4636],9.53
17,TTGTTTTTGTTCTTGGGTACTTAAATTATAAATGAT [XGTACX_site113],9.45
18,TCTTATGAATATCCCCGTACACATATATTTCTTATA [XGTACX_site6877],9.45
19,AGCTACACACCACAATGTACATAAATATATATGTGA [XGTACX_site1483],9.43
20,AGAATATTTAATTCAACACACATACATATTTATTAA [CACACA_site5318],9.37
